*1 amine or outer side, *2 acyl side, *3 side chain or, on linkers, in order; H or OH if unused. Where a SMILES comes first, the peptide text is derived from it. [ ]: non-standard residue; d: D form. The star is where a group is joined. ξ: configuration not given here. Pro(3R,4S-CMe2) = CC1(C)[C@@H]2[C@@H](C(=O)O)NC[C@@H]21; Leuψ(COCO) = CC(C)C[C@H](N[*:1])C(=O)C(=O)[*:2]; Pro(4,4-S(CH2)3S) = O=C(O)[C@@H]1CC2(CN1)SCCCS2; ξLeu(ψCOCO) = CC(C)CC(N[*:1])C(=O)C(=O)[*:2]; ξPhg(2,3-(OMe)2) = COc1cccc(C(N)C(=O)O)c1OC; Gly(1-Me-cHex) = CC1([C@H](N)C(=O)O)CCCCC1; X23 = CC(F)(F)CC(N[*:1])C(=O)C(=O)[*:2]; Pro(4,4-Me2) = CC1(C)CN[C@H](C(=O)O)C1; Pro(4S-Me) = C[C@@H]1CN[C@H](C(=O)O)C1; X25 = O=C(O)c1c(F)c(F)c(F)c(F)c1C(=O)*; X73 = O=C(O)c1c(F)c(F)c(C(=O)*)c(F)c1F; X12 = CCC[C@H](N[*:1])C(=O)C(=O)[*:2]; X32 = O=C(C(=O)[*:2])C(CC1CCC1)N[*:1]; Benzoyl(2,6-F2) = O=C(c1c(F)cccc1F)*; Isobutyloxycarbonyl = CC(C)COC(=O)*; ξPhg(3-Cl) = NC(C(=O)O)c1cccc(Cl)c1; Isopropoxycarbonyl = CC(C)OC(=O)*; Hyp = O=C(O)[C@@H]1C[C@@H](O)CN1; X2 = CCCC(N[*:1])C(=O)C(=O)[*:2]; Chg = N[C@H](C(=O)O)C1CCCCC1; Phg = N[C@H](C(=O)O)c1ccccc1; Tle = CC(C)(C)[C@H](N)C(=O)O; X17 = O=C(O)Cc1ccccc1CC(=O)*; ξChg = NC(C(=O)O)C1CCCCC1; ξPhg = NC(C(=O)O)c1ccccc1; ξTle = CC(C)(C)C(N)C(=O)O; ξLeu(ol) = CC(C)CC(N)CO; Boc = CC(C)(C)OC(=O)*; ξNle = CCCCC(N)C(=O)O; ξK = NCCCCC(N)C(=O)O; ξV = CC(C)C(N)C(=O)O; Bn = c1ccc(C*)cc1; tBu = CC(C)(C)*
Biological target: HCV NS3/NS4A protease (strain 1a) (Hepatitis C virus genotype 1a, UniProt P27958)
Test: biochemical
Conditions: Compounds prepared by Solid Phase Synthesis, Table 3; read-out: Ki* CLASS

SMILES | Ki
CCCCC(NC(=O)C(CCCC)NC(=O)CNC(=O)C(=O)C(CCC)NC(=O)[C@@H]1C[C@@H](OCc2ccccc2)CN1C(=O)C(NC(=O)Cc1ccccc1CC(=O)O)C1CCCCC1)C(N)=O (stereo partly shown) (X17-[ξChg][Hyp](Bn)[X2]G[ξNle][ξNle]-NH2) | 101 to 1000 nM
CCCC(NC(=O)[C@@H]1CCCN1C(=O)C(NC(=O)OCC(C)C)C(C)C)C(=O)C(=O)NCC(=O)NC(CCCCN)C(N)=O (stereo partly shown) (Isobutyloxycarbonyl-[ξV]P[X2]G[ξK]-NH2) | > 1000 nM
CCCC(NC(=O)[C@@H]1C[C@@H](OC(C)(C)C)CN1C(=O)[C@@H](NC(=O)c1c(F)c(F)c(F)c(F)c1C(=O)O)C1CCCCC1)C(=O)C(=O)NCC(=O)NC(C(N)=O)c1cccc(OC)c1OC (stereo partly shown) (X25-[Chg][Hyp](tBu)[X2]G[ξPhg(2,3-(OMe)2)]-NH2) | 101 to 1000 nM
CC(C)CC(NC(=O)[C@@H]1C[C@@H](OC(C)(C)C)CN1C(=O)[C@@H](NC(=O)c1c(F)c(F)c(C(=O)O)c(F)c1F)C1CCCCC1)C(=O)C(=O)NCC(=O)N[C@H](C(N)=O)c1ccccc1 (stereo partly shown) (X73-[Chg][Hyp](tBu)[ξLeu(ψCOCO)]G[Phg]-NH2) | > 1000 nM
CCCC(NC(=O)[C@@H]1C[C@@H](OC(C)(C)C)CN1C(=O)[C@@H](NC(=O)c1c(F)cccc1F)C1CCCCC1)C(=O)C(=O)NCC(=O)NC(C(N)=O)c1cccc(Cl)c1 (stereo partly shown) ({Benzoyl(2,6-F2)}-[Chg][Hyp](tBu)[X2]G[ξPhg(3-Cl)]-NH2) | 101 to 1000 nM
CCCC(NC(=O)[C@@H]1C[C@@H](OC(C)(C)C)CN1C(=O)[C@@H](NC(=O)c1c(F)c(F)c(F)c(F)c1C(=O)O)C1CCCCC1)C(=O)C(=O)NCC(=O)NC(C(N)=O)c1cccc(Cl)c1 (stereo partly shown) (X25-[Chg][Hyp](tBu)[X2]G[ξPhg(3-Cl)]-NH2) | 1 to 100 nM

Same assay, conditions: HCV protease continuous assay results, Table 1; read-out: Ki* Range

Ki | SMILES
> 1000 nM | C=CCOC(=O)CNC(=O)C(=O)C(CCC)NC(=O)[C@@H]1CCCN1C(=O)c1ccc(N2CCN(C(=O)[C@H](CCC(=O)O)NC(C)=O)CC2)cc1 (stereo partly shown) [Example 5]
> 1000 nM | C=CCOC(=O)CNC(=O)C(=O)C(CCC)NC(=O)[C@@H]1C[C@@H]2CCCC[C@@H]2CN1C(=O)OCc1ccccc1 (stereo partly shown) [Example 47]
101 to 1000 nM | CCCCC(NC(=O)[C@@H]1[C@@H]2[C@H](CN1C(=O)[C@@H](NC(=O)OC(C)(C)C)C(C)(C)C)C2(C)C)C(=O)C(N)=O (stereo partly shown) [Example 308]
> 1000 nM | CCCC(NC(=O)[C@@H]1C[C@@H](OC(C)(C)C)CN1C(=O)[C@@H](NC(=O)OCC(C)C)C(C)(C)C)C(=O)C(=O)NCC(=O)N[C@H](CO)C1SCCS1 (stereo partly shown) [Example 306]
> 1000 nM | C=CCNC(=O)C(=O)[C@H](CCC)NC(=O)[C@@H]1CCCN1C(=O)[C@@H](NC(=O)CC[C@H](NC(=O)OCc1ccccc1)C(=O)OC(C)(C)C)C(C)C [Example 30]

SMILES | Ki
CCCC(NC(=O)[C@@H]1CC2(CN1C(=O)C(NC(=O)OC(C)(C)C)C(C)(C)C)SCCCS2)C(=O)C(=O)NCC(=O)NC(CO)CC(C)C (stereo partly shown) [Example 246] (Boc-[ξTle][Pro(4,4-S(CH2)3S)][X2]G[ξLeu(ol)]) | 101 to 1000 nM

Same assay, conditions: Table 4; HCV NS3/NS4A protease, spectrophotometric assay, 30° C., pH 6.5; read-out: Ki* Range

SMILES | Ki
CC(C)C[C@H](NC(=O)[C@@H]1CC(C)(C)CN1C(=O)[C@@H](NC(=O)OC(C)C)C(C)(C)C)C(=O)C(=O)NCC(=O)N[C@H](C(=O)N(C)C)c1ccccc1 (Isopropoxycarbonyl-[Tle][Pro(4,4-Me2)][Leuψ(COCO)]G[Phg]-NMe2) | 1 to 100 nM
CCC[C@@H](NC(=O)[C@@H]1CC(C)(C)CN1C(=O)[C@@H](NC(=O)O[C@@H](C)C(C)C)C1CCCCC1)C(=O)C(=O)NCC(=O)N[C@H](C(=O)N(C)C)c1ccccc1 | 1 to 100 nM
CCC[C@H](NC(=O)[C@@H]1C[C@H](C)CN1C(=O)[C@@H](NC(=O)OCC(C)C)C1CCCCC1)C(=O)C(=O)NCC(=O)N[C@H](C(=O)N(C)C)c1ccccc1 (Isobutyloxycarbonyl-[Chg][Pro(4S-Me)][X12]G[Phg]-NMe2) | 1 to 100 nM

Same assay, conditions: Table 5; HCV NS3/NS4A protease, 30° C., pH 6.5; read-out: Ki* Range

Ki | SMILES
1 to 100 nM | CCCC(NC(=O)[C@@H]1C2C(CN1C(=O)C(NC(=O)OC(C)(C)C)C1Cc3ccccc3C1)C2(Cl)Cl)C(=O)C(=O)NCC(=O)NCc1ccccc1 (stereo partly shown)
101 to 1000 nM | C=CCNC(=O)C(=O)C(CCC)NC(=O)[C@@H]1C2C(CN1C(=O)[C@@H](NC(=O)NC1CCCCC1)C1CCCC1)C2(C)C (stereo partly shown)

Same assay, conditions: Table 5; HCV NS3/NS4A protease, spectrophotometric assay, 30° C., pH 6.5; read-out: Ki* Range

SMILES | Ki
CC(C)(C)NC(=O)NC(C(=O)N1C[C@@H]2[C@H]([C@H]1C(=O)NC(CC1CCC1)C(=O)C(N)=O)C2(Cl)Cl)C(C)(C)C (stereo partly shown) | 1 to 100 nM
C=CCCNC(=O)C(=O)C(CCC=C)NC(=O)[C@@H]1[C@@H]2[C@H](CN1C(=O)[C@@H](NC(=O)OC(C)(C)C)C(C)(C)C)C2(C)C (stereo partly shown) | 101 to 1000 nM
C=CCCNC(=O)C(=O)C(CCC=C)NC(=O)[C@@H]1[C@@H]2[C@H](CN1C(=O)[C@@H](NC(=O)NC13CC4CC(CC(C4)C1)C3)C1CCCCC1)C2(C)C (stereo partly shown) | 101 to 1000 nM
CCCC(NC(=O)[C@@H]1[C@@H]2[C@H](CN1C(=O)[C@@H](NC(=O)OC(C)(C)C)C(C)(C)C)C2(C)C)C(=O)C(=O)N[C@@H](C)C(=O)NC(C(=O)N(C)C)c1ccccc1 (stereo partly drawn) [drawing 1509] (Boc-[Tle][Pro(3R,4S-CMe2)][X2]A[ξPhg]-NMe2) | 1 to 100 nM

More lines, now with the values ahead:

Ki | SMILES
> 1000 nM | C=CCC(NC(=O)[C@@H]1C2C(CN1C(=O)[C@@H](NC(=O)OC(C)(C)C)C1Cc3ccccc3C1)C2(C)C)C(=O)C(=O)NCCC(=O)OC(C)(C)C (stereo partly shown)
> 1000 nM | CCCC(NC(=O)C1[C@@H]2[C@@H](CN1C(=O)[C@H](C1CCCCC1)N(CCC(C)C)C(=O)OC(C)(C)C)C2(C)C)C(=O)C(=O)NCC(=O)N[C@H](C(=O)N(C)C)c1ccccc1 (stereo partly shown)
1 to 100 nM | CCCC(NC(=O)[C@@H]1[C@H]2[C@@H](CN1C(=O)C(NC(=O)OC(C)(C)C)C1CCCCC1)C2(Cl)Cl)C(=O)C(=O)NCC(=O)N[C@H](C(=O)N(C)C)c1ccccc1 (stereo partly shown) [drawing 1619]
1 to 100 nM | CC(C)COC(=O)N[C@H](C(=O)N1C[C@H]2[C@@H]([C@H]1C(=O)NC(CC1CC1)C(=O)C(N)=O)C2(C)C)C(C)(C)C (stereo partly shown)
101 to 1000 nM | C=CCCC(NC(=O)[C@@H]1[C@@H]2[C@H](CN1C(=O)[C@@H](NC(=O)OC(C)(C)C)C(C)(C)C)C2(C)C)C(=O)C(=O)NCCC(=O)Nc1ccccc1 (stereo partly shown)
101 to 1000 nM | C=CCNC(=O)C(=O)C(CCC)NC(=O)[C@@H]1[C@H]2[C@@H](CN1C(=O)[C@@H](NC(=O)OCC(C)C)C1Cc3ccccc3C1)C2(C)C (stereo partly shown)
1 to 100 nM | CC(C)OC(=O)N[C@H](C(=O)N1C[C@H]2[C@@H](C1C(=O)NC(CC1CC1)C(=O)C(N)=O)C2(C)C)C1CCCCC1 (stereo partly shown)
101 to 1000 nM | CC(C)(C)OC(=O)N[C@H](C(=O)N1C[C@@H]2[C@H]([C@H]1C(=O)NC(CC1CC1)C(=O)C(=O)O)C2(C)C)C1Cc2ccccc2C1 (stereo partly shown)

Same assay, conditions: Table 6; HCV NS3/NS4A protease, 30° C., pH 6.5; read-out: Ki*

SMILES | Ki
CCCC(NC(=O)[C@@H]1[C@@H]2[C@H](CN1C(=O)[C@@H](NC(=O)NC(C)(C)C)C(C)(C)C)C2(C)C)C(=O)C(=O)NCC(O)COc1ccccc1 (stereo partly shown) | 101 to 1000 nM
CN(C)C(=O)[C@@H](NC(=O)CNC(=O)C(=O)C(CC1CCC1)NC(=O)[C@@H]1[C@@H]2[C@H](CN1C(=O)[C@@H](NC(=O)OC(C)(C)C)C1(C)CCCCC1)C2(C)C)c1ccccc1 (stereo partly drawn) (Boc-[Gly(1-Me-cHex)][Pro(3R,4S-CMe2)][X32]G[Phg]-NMe2) | 1 to 100 nM
CN(C)C(=O)C(NC(=O)CNC(=O)C(=O)C(CC(C)(F)F)NC(=O)[C@@H]1[C@@H]2[C@H](CN1C(=O)[C@@H](NC(=O)OC(C)(C)C)C(C)(C)C)C2(C)C)c1ccccc1 (stereo partly drawn) (Boc-[Tle][Pro(3R,4S-CMe2)][X23]G[ξPhg]-NMe2) | 101 to 1000 nM

Now from value to molecule:

Ki | SMILES
101 to 1000 nM | C=CCNC(=O)C(=O)C(CCCC(F)(F)F)NC(=O)[C@@H]1[C@@H]2[C@H](CN1C(=O)[C@@H](NC(=O)OC(C)(C)C)C1CCCCC1)C2(C)C (stereo partly shown)
1 to 100 nM | CCOC(=O)CCNC(=O)N[C@H](C(=O)N1C[C@H]2[C@@H]([C@H]1C(=O)NC(CC1CCC1)C(=O)C(N)=O)C2(C)C)C1CCCCC1 (stereo partly shown)

— patent US7592316B2, “Peptides as NS3-serine protease inhibitors of hepatitis C virus” (Schering Corporation, priority 2000, dated 2009)
